{"source": "PubChem BioAssay AID588855", "about": "(National Center for Advancing Translational Sciences (NCATS), 2011)", "note": "About 5,000 (1.2%) of roughly 410,000 compounds were called active. The inconclusive results got no clear call from the source; some entries with a clear call stand among them for comparison. The call rests on the fitted dose curve; in most records, active means well fitted inhibition curve with a large enough effect; inconclusive means small, poorly fitted or top-dose-only effect; inactive means no such curve, though single readings can be large or run the other way. A potency beside an inconclusive call is a rough fit, not a confirmed value. On the % scale 0 is the no-effect control and ±100 the full control effect; potency means the concentration at half of the fitted maximal effect; tags describe the fitted curve by direction and shape."}
{"test": "qHTS for Inhibitors of TGF-b; further: nearly all actives have a fitted effect of over 65% in size", "details": "HepG2 CAGA-GFP TGF-b/SMAD3 reporter, GFP fluorescence, 18 h, TGF-beta stimulated, 500 pg/mL final; series mostly up to 46.1 µM; activity, negative = inhibition: at the top concentration", "method_in_brief": "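Read-out: total well GFP (ex488/em500-530) summed from mean per-cell fluorescence. Cells: HEPG2 CAGA-GFP, 1% FBS DMEM, 18 h at 37 degrees C with 500 pg/mL final TGF-beta. Unstimulated wells served as the full-inhibition control; stimulated DMSO wells = 0%.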"}
{"smiles": "C[C@]12c3[nH]c4cc(-c5ccco5)ccc4c3CCN1C(=O)[C@@H](CC(=O)NCC13CC4CC(CC(C4)C1)C3)C[C@@H]2C(=O)N1CCCCC1", "Potency": "inconclusive: 20 µM [inhibitor, partial curve, poor fit]"}
{"smiles": "Cc1ccnc(N2CCN(C(=O)CSc3nc4ccccc4nc3N3CCCCC3)CC2)c1", "Potency": "inconclusive: 35.5 µM [inhibitor, single point]"}
{"smiles": "Cc1ccccc1OCc1nnc(SCc2cc(=O)c3cccc(F)c3[nH]2)n1C", "activity, negative = inhibition": "inactive: -27.1%"}
{"smiles": "CCN(C(=O)c1cc2c(=O)[nH]c3ccc(C)cc3c2s1)c1ccccc1C", "activity, negative = inhibition": "inactive: -0.709%"}
{"smiles": "N#Cc1ccc(C(=O)Nc2cc(-c3ccc(F)cc3)nn2-c2ccccc2)cc1", "Potency": "inconclusive: 14.1 µM [inhibitor, single point]"}
{"smiles": "COc1ccc(-c2nc3c(C)cc(Br)cn3c2Cc2ccc(C)cc2)cc1OC", "Potency": "inconclusive: 17.8 µM [inhibitor, single point]"}
{"smiles": "Fc1ccccc1Cn1c(-c2ccccc2)nc2ccccc21", "Potency": "inconclusive: 31.6 µM [inhibitor, single point]"}
{"smiles": "CCCNS(=O)(=O)/C=C/c1ccccc1", "Potency": "inconclusive: 22.4 µM [inhibitor, single point]"}
{"smiles": "O=C(Nc1cc(Cl)ccc1-n1cncn1)c1cc(S(=O)(=O)N2CCOCC2)ccc1F", "activity, negative = inhibition": "inactive: -3.34%"}
{"smiles": "CO[C@H]1C[C@@H]2CC[C@@H](C)[C@@](O)(O2)C(=O)C(=O)N2CCCC[C@H]2C(=O)O[C@H]([C@H](C)C[C@@H]2CC[C@@H](O)[C@H](OC)C2)CC(=O)[C@H](C)/C=C(/C)[C@@H](O)[C@@H](OC)C(=O)[C@H](C)C[C@H](C)C=C/C=C\\C=C/1C", "Potency": "active: 4.47 µM"}
{"smiles": "COc1cc(NC(=O)c2cccs2)c(OC)cc1NC(=O)CCC(=O)Nc1ccc(C)cc1", "activity, negative = inhibition": "inactive: -6.02%"}
{"smiles": "COC(=O)c1ccc(NC(=S)NCC2CC2)cc1", "Potency": "inconclusive: 17.8 µM [inhibitor, single point]"}
{"smiles": "Cc1cc(C)c(NC(=O)Nc2ccc3snnc3c2)c(C)c1", "activity, negative = inhibition": "inactive: -0.586%"}
{"smiles": "O=c1cc(-c2ccccc2)nc2c(Cl)cc(Cl)cn12", "activity, negative = inhibition": "inactive: -15.2%"}
{"smiles": "COc1ccc2c(c1OC)C(=O)N(c1ccc3c(c1)CCC3)C2=O", "Potency": "inconclusive: 4.47 µM [inhibitor, full curve, poor fit]"}
{"smiles": "Cc1cc(-n2c(C)cc(C(=O)CN3C(=O)NC4(CCCCC4)C3=O)c2C)no1", "Potency": "inconclusive: 20 µM [inhibitor, single point]"}
{"smiles": "c1ccc2c(c1)CSc1sccc1C2=C1CCNCC1", "Potency": "inconclusive: 17.8 µM [inhibitor, single point]"}
{"smiles": "CCOC(=O)c1ccc(NC(=O)COc2ccccc2CNCCc2ccccc2)cc1", "Potency": "inconclusive: 14.1 µM [inhibitor, partial curve, poor fit]"}
{"smiles": "O=C(CSCc1ccccc1Cl)NCCSc1ccccn1", "Potency": "inconclusive: 35.5 µM [inhibitor, single point]"}
{"smiles": "CN(c1ccc(F)cc1)S(=O)(=O)c1ccc(Cl)c(C(=O)NCC(c2ccco2)N2CCCCC2)c1", "note": "(configuration not stated)", "Potency": "inconclusive: 3.55 µM [inhibitor, full curve, poor fit]"}
{"smiles": "Cc1ccc(C)c(CSc2nc3ccncc3n2CC(=O)Nc2ccc(N(C)C)cc2)c1", "Potency": "inconclusive: 0.251 µM [inhibitor, full curve]"}
{"smiles": "CCc1ccc(-c2nc3c(=O)n(C)c(=O)nc-3n(CC)n2)cc1", "Potency": "active: 0.891 µM"}
{"smiles": "Cc1ccc(NC(=O)c2cc(S(=O)(=O)N3CCCCC3)ccc2N2CCOCC2)cc1F", "activity, negative = inhibition": "inactive: -0.363%"}
{"smiles": "COc1ccc(C(=O)CSc2c(C(C)C)cnc3c2c(=O)n(C)c(=O)n3C)cc1", "Potency": "inconclusive: 6.31 µM [inhibitor, single point]"}
{"smiles": "COc1ccc(C(=O)N=S2CCN(C(=O)c3ccc(Cl)cc3)CC2)cc1", "Potency": "inconclusive: 35.5 µM [inhibitor, single point]"}
{"smiles": "O=C(CSc1ccccc1)Nc1ccc(-c2nc3ccccc3[nH]2)cc1", "Potency": "inconclusive: 35.5 µM [inhibitor, single point]"}
{"smiles": "O=C(Nc1ccc(Cl)cc1)c1cc(-c2cccs2)on1", "activity, negative = inhibition": "inactive: -15.7%"}
{"smiles": "Cc1ccc2c(c1)C(c1ccc(F)cc1)N(C(=O)c1ccc(OC(C)C)cc1)CC(=O)N2", "note": "(configuration not stated)", "activity, negative = inhibition": "inactive: 0%"}
{"smiles": "Cc1ccccc1C(=O)Nc1cc(-c2ccc(Cl)cc2)nn1-c1ccccc1", "activity, negative = inhibition": "inactive: -2.15%"}
{"smiles": "COc1cc(C(=O)NCc2nnc(SCC(=O)N3CCCCC3)o2)cc(OC)c1OC", "Potency": "inconclusive: 35.5 µM [inhibitor, partial curve, poor fit]"}
{"smiles": "O=C(c1cnn2c(C(F)(F)F)cc(-c3ccc(F)cc3)nc12)N1CCc2ccccc2C1", "Potency": "inconclusive: 35.5 µM [inhibitor, single point]"}
{"smiles": "Cn1c(=O)[nH]c(=O)c2c1nc(N1CCNCC1)n2Cc1cccc2ccccc12", "activity, negative = inhibition": "inactive: -27.6%"}
{"smiles": "O=C(c1ccccc1)N1c2ncnn2C2(CCCCC2)[C@@H]2CCCC[C@@H]21", "activity, negative = inhibition": "inactive: 4.66%"}
{"smiles": "OC(c1ccccc1)(c1nc(-c2ccc3ccccc3c2)cs1)C(F)(F)F", "note": "(configuration not stated)", "Potency": "inconclusive: 25.1 µM [inhibitor, single point]"}
{"smiles": "C=CCSc1nc2ccccc2n1C(=O)/C=C/c1ccc(OC)c(OC)c1", "activity, negative = inhibition": "inactive: -6.32%"}
{"smiles": "COc1ccc(C(N)c2csc(Nc3nncc4ccccc34)n2)cc1", "note": "(configuration not stated)", "Potency": "active: 12.6 µM"}
{"smiles": "CC(=O)NC1=CC(=O)c2nonc2C1=O", "Potency": "inconclusive: 22.4 µM [inhibitor, single point]"}
{"smiles": "CCCOC(=O)c1ccc(Oc2cn[nH]c2-c2ccc(OCC)cc2O)cc1", "Potency": "inconclusive: 35.5 µM [inhibitor, single point]"}
{"smiles": "Cc1ccc(CSc2ccc(S(=O)(=O)N3CCOCC3)cn2)cc1", "activity, negative = inhibition": "inactive: 3.37%"}
{"smiles": "O=C(Cc1ccc([N+](=O)[O-])cc1)c1ccccc1", "activity, negative = inhibition": "inactive: 10.4%"}
{"smiles": "COc1ccc(S(=O)(=O)NCCc2c(C)nn(C)c2Oc2ccccc2)cc1", "Potency": "inconclusive: 17.8 µM [inhibitor, single point]"}
{"smiles": "CCC1Sc2ccc(S(=O)(=O)CCC(=O)Nc3c(Cl)cc(OC)cc3OC)cc2NC1=O", "note": "(configuration not stated)", "Potency": "inconclusive: 12.6 µM [inhibitor, partial curve, poor fit]"}
{"smiles": "O=C(Nc1ccn(-c2ccccc2)n1)c1ccc(Cl)cc1", "activity, negative = inhibition": "inactive: -9.46%"}
{"smiles": "CCC(c1nnnn1Cc1ccco1)N(CCc1ccccc1)Cc1cc2cc(C)ccc2[nH]c1=O", "note": "(configuration not stated)", "Potency": "inconclusive: 35.5 µM [inhibitor, single point]"}
{"smiles": "Cc1ccc2oc3c(c(=O)c2c1)C1(C(=O)N(C)c2ccccc21)N(CCCO)C3=O", "note": "(configuration not stated)", "Potency": "inconclusive: 0.891 µM [inhibitor, partial curve, poor fit]"}
{"smiles": "O=C(CCS(=O)(=O)c1cccc2nsnc12)Nc1ccc(F)cc1", "Potency": "inconclusive: 1.58 µM [inhibitor, partial curve, poor fit]"}
{"smiles": "C[C@H](CO)N1C[C@H](C)[C@@H](CN(C)C(=O)c2cnccn2)Oc2cc(C#CCC3CCCC3)ccc2S1(=O)=O", "Potency": "inconclusive: 17.8 µM [inhibitor, single point]"}
{"smiles": "Cc1ccc(Cl)cc1NC(=O)C(=O)NCC(c1cccnc1)N1CCc2ccccc21", "note": "(configuration not stated)", "Potency": "inconclusive: 25.1 µM [inhibitor, single point]"}
{"smiles": "Cc1cccn2c(=O)c(C=O)c(N3CCCCCC3)nc12", "Potency": "inconclusive: 20 µM [inhibitor, single point]"}
{"smiles": "CCN(CCCNS(=O)(=O)c1ccc2c(c1)CCN2C(C)=O)c1cccc(C)c1", "Potency": "inconclusive: 22.4 µM [inhibitor, single point]"}
{"smiles": "CC(NCC1(N2CCOCC2)CCCCC1)C(=O)N1CCc2ccccc21", "note": "(configuration not stated)", "activity, negative = inhibition": "inactive: -0.687%"}
{"smiles": "Clc1ccc(C2[C@H]3CN(Cc4cccnc4)[C@H](c4ccccc4)C34CC2(c2cccnc2)C4)cn1", "note": "(some centres not stated)", "Potency": "inconclusive: 17.8 µM [inhibitor, single point]"}
{"smiles": "Cc1ccc(NC(=O)C(Cc2c[nH]c3ccccc23)NC(=O)OCC(C)C)cc1", "note": "(configuration not stated)", "Potency": "inconclusive: 10 µM [inhibitor, partial curve, poor fit]"}
{"smiles": "COCCN(C(=S)Nc1ccc(C)cc1C)C(C)c1ccco1", "note": "(configuration not stated)", "activity, negative = inhibition": "inactive: 0.0716%"}
{"smiles": "O=C(O)C(C(=O)/C=C/c1ccco1)=C1SCCS1", "activity, negative = inhibition": "inactive: -23.6%"}
{"smiles": "COc1ccccc1CN1C[C@@H]2C[C@@H](C3=Cc4cc(Cl)ccc4OC3)N3CCC[C@@]23C1=O", "Potency": "inconclusive: 15.8 µM [inhibitor, single point]"}
{"smiles": "CCOc1cccc(C2C=C(c3ccc4c(c3)OCO4)NC(c3ccccc3F)N2)c1O", "note": "(configuration not stated)", "Potency": "inconclusive: 12.6 µM [inhibitor, single point]"}
{"smiles": "CC(=O)/C=C/n1c(=S)oc2ccccc21", "Potency": "active: 6.31 µM"}
{"smiles": "Cc1ccc(C)c(C(=O)NC(C)c2ccc(-n3ccnc3)cc2)c1", "note": "(configuration not stated)", "activity, negative = inhibition": "inactive: 0%"}
{"smiles": "CCc1ccc(C(=O)C[n+]2cccc3cc(OC)ccc32)cc1", "Potency": "inconclusive: 25.1 µM [inhibitor, single point]"}
{"smiles": "Cc1ccc(C(=O)N/C(=C\\c2ccc(-c3ccc(Br)cc3)o2)C(=O)NCCCN(C)C)cc1", "Potency": "active: 7.08 µM"}
{"smiles": "N=C1c2ccccc2CN1c1ccc(S(=O)(=O)N2CCCCC2)cc1", "Potency": "inconclusive: 1.41 µM [inhibitor, full curve, poor fit]"}
{"smiles": "O=C(Nc1cccc(Cl)c1)c1ccc(OC(=S)N2CCOCC2)cc1", "Potency": "inconclusive: 2.82 µM [inhibitor, single point]"}
{"smiles": "COc1ccc(F)cc1S(=O)(=O)Nc1cccc(-c2ccc(N3CCCCCC3)nn2)c1", "Potency": "inconclusive: 15.8 µM [inhibitor, single point]"}
{"smiles": "COc1ccccc1OCc1nnc(SCC(=O)Nc2ccc(N3CCOCC3)cc2)n1C", "activity, negative = inhibition": "inactive: 7.35%"}
{"smiles": "Cc1nn(Cc2c(Cl)cccc2Cl)c(Cl)c1/C=C/C(=O)OCC(=O)NCC(F)(F)F", "Potency": "inconclusive: 0.316 µM [inhibitor, full curve, poor fit]"}
{"smiles": "COc1ccc(OC)c(NC(=O)Nc2nc(CN)cs2)c1", "activity, negative = inhibition": "inactive: 2.7%"}
